Results taken from the supplement of paper PMC4723716.
± gives the uncertainty stated by the source. Whole data set: some 9,900 compounds, median “viability index relative to DMSO control” near 1, cut for the lowest 2% near 0.85. The list shows a part of the results.

System: Plasmodium falciparum NF54 stage V gametocytes
Experiment: viability index relative to DMSO control (fraction); higher = less gametocyte killing
Conditions: 2.5 µM, incubation time: 72 h
Summary of the method: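 Viability index is the count of red-stained particles in a well divided by the plate mean of solvent-only wells. Particles of 20–70 µm2 were counted in one imaged field per well after one to two hours with 3 µl of 2.5 µM MitoTracker Red CMXRos and 0.13% saponin. Before staining, P. falciparum NF54 stage V gametocytes in serum-free medium (0.75% gametocytemia, 1.25% hematocrit, 10 µl, 1,536-well plates) were kept with compound at 2.5 µM for 72 hr at 37°C under low oxygen.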

[1] = library set: Broad Institute DOS

SMILES | viability index [1] | viability index (library set: Broad Institute Blood Stage)
CCC(=O)N1[C@@H]2CN(S(=O)(=O)c3ccc(F)cc3)c3ccccc3[C@@H]2[C@@H]1CO | 1.02 ± 0.07 | 
COc1ccccc1CN1[C@@H]2CNC[C@H]1[C@@H]2c1ccc(-c2cccc(C#N)c2)cc1 | 1 ± 0.04 | 
C[C@H](CO)N1C[C@H](C)[C@@H](CN(C)Cc2ccncc2)OCCCC[C@H](C)Oc2ccc(NS(=O)(=O)c3ccc(Cl)cc3)cc2C1=O | 1.098 ± 0.0097 | 
CO[C@H]1CN(C)C(=O)c2ccc(NC(=O)C3CCC3)cc2OC[C@@H](C)N(Cc2ccccn2)C[C@@H]1C | 1.11 ± 0.055 | 
CC(C)[C@H]1C/C=C\CCNC(=O)[C@@H](C)CC(=O)N1 | 1.02 ± 0.073 | 
COc1ccc(S(=O)(=O)N(C)C[C@H]2Oc3c(NC(=O)Nc4cccc5ccccc45)cccc3C(=O)N([C@@H](C)CO)C[C@H]2C)cc1 |  | 0.767 ± 0.035
CN1CCN(C(=O)C[C@H]2CC[C@H]3[C@@H](COC[C@H](O)CN3C(=O)c3ccccc3F)O2)CC1 | 0.997 ± 0.099 | 
Cc1ccc(S(=O)(=O)N[C@@H]2CC[C@@H](CC(=O)NCc3ccncn3)O[C@H]2CO)cc1 | 0.929 ± 0.075 | 
COc1ccc(CN2[C@H](CO)[C@@H]3c4ccccc4N(C(=O)NC(C)C)C[C@@H]32)cc1 | 1.06 ± 0.024 | 
Cc1noc(C)c1NC(=O)N(C)C[C@@H]1OCCCC[C@@H](C)Oc2ccc(NC(=O)Nc3ccc(C(F)(F)F)cc3)cc2C(=O)N([C@@H](C)CO)C[C@H]1C | 1.03 ± 0.053 | 
C[C@H]1CN([C@@H](C)CO)C(=O)c2cc(NC(=O)Cn3cnnn3)ccc2O[C@@H]1CN(C)Cc1ccc(C(=O)Nc2ccccc2N)cc1 | 1.05 ± 0.12 | 
COc1ccccc1S(=O)(=O)N(C)C[C@@H]1OCc2ccccc2-c2ccccc2C(=O)N([C@@H](C)CO)C[C@H]1C | 1.07 ± 0.095 | 
C[C@H]1CN([C@@H](C)CO)C(=O)CCCn2cc(nn2)CO[C@H]1CN(C)C(=O)c1ccc(N2CCN(C)CC2)cc1 | 1 ± 0.014 | 
COc1cccc(-c2ccc3c(c2)[C@@H]2[C@@H](CCN2S(=O)(=O)c2cn(C)cn2)[C@@H](CO)N3)c1 | 0.97 ± 0.14 | 
C[C@@H]1CN([C@H](C)CO)C(=O)c2ccccc2-c2ccccc2CO[C@@H]1CN(C)C(=O)[C@@H]1CCCN1C | 0.9984 ± 0.0065 | 
C[C@H]1CN([C@@H](C)CO)C(=O)c2ccccc2-c2ccccc2CO[C@@H]1CN(C)C(=O)Nc1cccc(C(F)(F)F)c1 | 1 ± 0.12 | 
CCCNC(=O)Nc1ccc2c(c1)OC[C@@H](C)N(Cc1cncnc1)C[C@H](C)[C@@H](OC)CN(C)C2=O | 1.05 ± 0.075 | 
CN(C)C(=O)C[C@H]1C[C@H]2c3cc(NC(=O)Nc4ccc(F)cc4)ccc3O[C@H]2[C@H](CO)O1 | 1.05 ± 0.073 | 
COCc1cn(CC[C@H]2CC[C@H](NC(=O)Nc3c(C)noc3C)[C@H](CO)O2)nn1 | 1.05 ± 0.052 | 
COCC(=O)N1[C@H](CO)[C@H](c2ccccc2C2=CCCC2)[C@@H]1C#N | 1.16 ± 0.12 | 
CO[C@@H]1CN(C)C(=O)c2cc(NS(=O)(=O)CC(F)(F)F)ccc2OC[C@@H](C)NC[C@@H]1C | 1.01 ± 0.12 | 
O=C(C[C@@H]1C[C@H]2c3cc(NC(=O)c4ccc5c(c4)OCO5)ccc3O[C@H]2[C@H](CO)O1)NCc1ccc(Oc2ccccc2)cc1 | 1.07 ± 0.055 | 

SMILES | viability index [1] | viability index (library set: Broad Institute Blood Stage)
CC(C)C#Cc1ccc([C@@H]2[C@@H](CO)N3C(=O)CN(C(=O)NC4CCCC4)C[C@@H]23)cc1 | 1.07 ± 0.037 | 
CN1C(=O)c2cc(NC(=O)Nc3ccccc3Cl)ccc2OC[C@@H]2O[C@@H](CC(=O)NCCCN3CCOCC3)CC[C@H]21 | 1.15 ± 0.13 | 
C[C@H](CO)N1C[C@H](C)[C@H](CN(C)Cc2ccc(Oc3ccccc3)cc2)OCc2ccccc2-c2ccccc2C1=O | 0.931 ± 0.045 | 
C[C@@H]1CN([C@H](C)CO)C(=O)c2ccccc2-c2ccccc2CO[C@@H]1CN(C)C(=O)Nc1ccc(-c2ccccc2)cc1 | 0.987 ± 0.069 | 
O=C(C1CCOCC1)N1[C@@H](CO)[C@@H](c2ccccc2)C12CN(CCC(F)(F)F)C2 | 0.992 ± 0.1 | 
Cc1ccc(S(=O)(=O)N2CC[C@@H]3[C@@H](CO)N(C)c4ccc(-c5ccccc5F)cc4[C@@H]32)cc1 | 1.07 ± 0.023 | 
C[C@H]1CN([C@@H](C)CO)C(=O)c2cc(NC(=O)Nc3cccc4ccccc34)ccc2O[C@H]1CN(C)S(=O)(=O)c1cccs1 | 0.911 ± 0.088 | 
C[C@@H]1CCCCO[C@@H](CN(C)C(=O)Cc2ccccc2)[C@@H](C)CN([C@H](C)CO)C(=O)c2cc(NS(C)(=O)=O)ccc2O1 | 1.04 ± 0.033 | 
COc1ccc2c3c([C@H](CO)N(C[C@]33CN(C3)C(=O)CN3CCOCC3)C(=O)Nc3ccc(F)cc3)n(C)c2c1 | 1.01 ± 0.075 | 
C[C@@H]1CN([C@H](C)CO)C(=O)c2cc(NS(C)(=O)=O)ccc2O[C@H]1CN(C)C | 1.04 ± 0.06 | 
Cc1cccc(S(=O)(=O)N2C[C@@H]3N[C@H](C2)[C@H]3c2ccc(-c3cncnc3)cc2)c1 | 1.01 ± 0.045 | 
O=C(C[C@@H]1CC[C@@H]2NC[C@H](O)COC[C@H]2O1)Nc1ccc(-c2ccccc2)cc1 | 1.09 ± 0.096 | 
C[C@@H](NC(=O)[C@@H]1[C@@H](CO)[C@@H]2Cn3c(cccc3=O)[C@H]1N2C(=O)C1CCC1)c1ccccc1 | 1.07 ± 0.025 | 
O=C(c1ccc(F)cc1)N1C[C@@H]2N[C@H](C1)[C@@H]2c1ccc(-c2cccnc2)cc1 | 1.06 ± 0.034 | 
CCCC#Cc1ccc([C@H]2[C@@H](CO)N(C(=O)NC(C)C)[C@H]2CNC(C)=O)cc1 | 0.979 ± 0.044 | 
CC(C)NC(=O)Nc1ccc2c(c1)C(=O)N([C@H](C)CO)C[C@@H](C)[C@@H](CN(C)C(=O)C1CCCCC1)OCCCC[C@H](C)O2 | 1.04 ± 0.028 | 
O=C(C[C@H]1C[C@@H]2c3cc(NC(=O)c4ccc5c(c4)OCO5)ccc3O[C@@H]2[C@H](CO)O1)NCCN1CCCCC1 | 1.06 ± 0.015 | 
CN1CCN(C(=O)C[C@H]2C[C@@H]3c4cc(NS(C)(=O)=O)ccc4O[C@@H]3[C@@H](CO)O2)CC1 | 1.07 ± 0.02 | 
Cc1ccccc1-c1ccc([C@H]2[C@H](CO)N3C(=O)CN(C(=O)Nc4cccc(F)c4)C[C@@H]23)cc1 | 1.02 ± 0.042 | 
CCCNC(=O)N1C[C@@H]2N[C@H](C1)[C@@H]2c1ccc(-c2ccc(OC)cc2)cc1 | 1.1 ± 0.12 | 
C[C@@H]1CN([C@H](C)CO)C(=O)c2ccccc2-c2ccccc2CO[C@H]1CN(C)S(=O)(=O)c1cn(C)cn1 | 0.944 ± 0.034 | 
Cn1cnc(CCNC(=O)C[C@@H]2CC[C@@H]3[C@H](COC[C@@H](O)CN3C(=O)Nc3ccc(C(F)(F)F)cc3)O2)c1 | 1.06 ± 0.069 | 
